This is one part of the list. The source does not settle which construct or isoform was used.

In the test the target is GST-SBP-ILF3 (Homo sapiens) (UniProt Q12906). The experiment in a line: targeted RNA Bind-n-Seq. To be noted: RBNS binding buffer: 25 mM Tris pH 7.5, 150 mM KCl, 3 mM MgCl2, 0.1% Tween, 0.5 mg/mL BSA, 1 mM DTT; 27 nM protein, 750 pM RNA pool; temperature not stated; high values mean tight binding; sequences stand for … in GGGUAAAAGCGAGGUGAA…CGGGACAAGUAUUAUGGG
For the sequence “GGUGUUGGUGUUGGAUCCUAACACCAGCGC [gtspaired]”, the binding signal (log2 fold change) was -0.476.

Turning to “UUUUUUUUUUGAGAGCGAGUCGUUCUCCUA [tttttgagapaired]”, the binding signal (log2 fold change) was 0.133.

For “GGUGUGUGUGUUGGUCUCUAACACAUAUAC [gtspaired]”, the binding signal (log2 fold change) is -0.664.

Turning to “UUUUUUUUUUGAGACUGAGUCAGUUUCCAG [tttttgagapaired]”, the binding signal (log2 fold change) came to 0.358.

Turning to “UUUUUUUUUUGAGAUGGUAACUAUCUCCUA [tttttgagapaired]”, the binding signal (log2 fold change) was 0.247.

“UUUUUUUUUUGAGACGGGCUCCGUCUCCUG [tttttgagapaired]”: the binding signal (log2 fold change) is 0.48.

For “GUGUGUGGUGUUGGCCCCUAACACCAUACG [gtspaired]”, the binding signal (log2 fold change) is -0.224.

Consider “GUGUGGUGUGUUGGCAUCUAACACACUACA [gtspaired]”, for which the binding signal (log2 fold change) is -0.523.

As to “GGUGGUGGUGUUGGUAUCUAACACCGCUAC [gtspaired]”, the binding signal (log2 fold change) was -1.1.

With “UUUUUUUUUUGAGAGCGGGGCGCUCUCCUA [tttttgagapaired]”, the binding signal (log2 fold change) came to 0.373.

With “GGUGGUUGUGUUGGUGUCUAACACAGCCGC [gtspaired]”, the binding signal (log2 fold change) is -0.588.

“GGUGGUUGUGUUGGCCCCUAACACAGCUAC [gtspaired]”: the binding signal (log2 fold change) is -0.161.

“GGUGGUGGUGUUGGCACCUAACACCGCCGC [gtspaired]”: the binding signal (log2 fold change) was -0.371.

Regarding “UUUUUUUUUUGAGAUGGAAACCAUUUCCAG [tttttgagapaired]”, the binding signal (log2 fold change) amounted to 0.188.

With “UUUUUUUUUUGAGAGUGUGACAUUCUCCAG [tttttgagapaired]”, the binding signal (log2 fold change) turned out to be 0.245.

For the sequence “UUUUUUUUUUGAGAUGGGUCCUAUCUCCAG [tttttgagapaired]”, the binding signal (log2 fold change) turned out to be 0.784.

As to “GUGGUUGGUGUUGGCACCUAACACCGACCA [gtspaired]”, the binding signal (log2 fold change) is -0.266.

Turning to “GGUGUGUGUGUUGGCGUCUAACACACGCGC [gtspaired]”, the binding signal (log2 fold change) was -0.412.

In the case of “GUGUGUGGUGUUGGACCCUAACACCACGCA [gtspaired]”, the binding signal (log2 fold change) is -0.262.

For “UUUUUUUUUUGAGAGGGACACCCUCUCCUA [tttttgagapaired]”, the binding signal (log2 fold change) was 0.522.

On to “GUGGUGUGUGUUGGAUCCUAACACACGCCG [gtspaired]”, for which the binding signal (log2 fold change) was -0.719.

As to “GUGUGUGGUGUUGGCGUCUAACACCAUACG [gtspaired]”, the binding signal (log2 fold change) was -0.53.

In the case of “UUUUUUUUUUGAGACUGGAGCAGUCUCCUA [tttttgagapaired]”, the binding signal (log2 fold change) was found to be 0.506.

Take “UUUUUUUUUUGAGAUCGGGUCGAUCUCCGG [tttttgagapaired]”: the binding signal (log2 fold change) came to 0.229.

As for “UUUUUUUUUUGAGACGGCUACCGUCUUCUG [tttttgagapaired]”, the binding signal (log2 fold change) worked out at 0.864.

On to “GUUGUGUGUGUUGGACUCUAACACACACAG [gtspaired]”, for which the binding signal (log2 fold change) is -0.392.

With “UUUUUUUUUUGAGAGGGAACCCCUUUCCAG [tttttgagapaired]”, the binding signal (log2 fold change) was -0.0258.

Turning to “UUUUUUUUUUGAGACGGGGACCGUCUCCAG [tttttgagapaired]”, the binding signal (log2 fold change) was 0.486.

On to “GGUGGUGGUGUUGGAGCCUAACACCGCUAC [gtspaired]”, for which the binding signal (log2 fold change) is -0.544.

As to “UUUUUUUUUUGAGAUGGGAUCCAUCUUCUA [tttttgagapaired]”, the binding signal (log2 fold change) is -0.109.

As to “GUGUGUGGUGUUGGAGCCUAACACCAUACA [gtspaired]”, the binding signal (log2 fold change) turned out to be 0.0506.

As to “GUGUGGUGUGUUGGCCUCUAACACACCAUA [gtspaired]”, the binding signal (log2 fold change) is -0.803.

Turning to “GUGUGUUGUGUUGGUGCCUAACACAACGCG [gtspaired]”, the binding signal (log2 fold change) was -0.724.

As for “GUGUGUGGUGUUGGUCCCUAACACCACGCG [gtspaired]”, the binding signal (log2 fold change) was -0.538.

As for “GGUGGUGGUGUUGGACUCUAACACCGCUAC [gtspaired]”, the binding signal (log2 fold change) was -0.417.

Consider “UUUUUUUUUUGAGACCGGAUCGGUCUCCAG [tttttgagapaired]”, for which the binding signal (log2 fold change) was determined as 0.387.

With “UUUUUUUUUUGAGAUGGAGACCAUCUUCUG [tttttgagapaired]”, the binding signal (log2 fold change) was found to be 0.243.

On to “UUUUUUUUUUGAGACGGAGACCGUUUCCGG [tttttgagapaired]”, for which the binding signal (log2 fold change) is 0.781.

“UUUUUUUUUUGAGAUGGACUCCGUCUCCAG [tttttgagapaired]”: the binding signal (log2 fold change) came to 0.257.

Consider “UUUUUUUUUUGAGACGGGAUCUGUCUCCGG [tttttgagapaired]”, for which the binding signal (log2 fold change) stood at 0.536.

In the case of “GGUGUGUGUGUUGGUCCCUAACACAUAUAC [gtspaired]”, the binding signal (log2 fold change) is -0.691.

Consider “GUGUGGUGUGUUGGCCCCUAACACAUCACA [gtspaired]”, for which the binding signal (log2 fold change) was -0.144.

For the sequence “GUUGGUGGUGUUGGCGCCUAACACCACCAG [gtspaired]”, the binding signal (log2 fold change) is -0.252.

For “UUUUUUUUUUGAGAGCGAGCCGCUCUUCUA [tttttgagapaired]”, the binding signal (log2 fold change) was -0.0383.

On to “GUGGUGUGUGUUGGUCUCUAACACACGCCG [gtspaired]”, for which the binding signal (log2 fold change) was -0.73.

With “UUUUUUUUUUGAGACGGGGGCCGUUUCCUA [tttttgagapaired]”, the binding signal (log2 fold change) worked out at 0.723.

Consider “UUUUUUUUUUGAGACUGUGUCAGUCUCCUG [tttttgagapaired]”, for which the binding signal (log2 fold change) is 0.891.

Take “UUUUUUUUUUGAGAACGUAUCGUUCUCCUA [tttttgagapaired]”: the binding signal (log2 fold change) was -0.114.

As for “UUUUUUUUUUGAGAGCGUACCGCUCUUCUA [tttttgagapaired]”, the binding signal (log2 fold change) was 0.433.

As to “UUUUUUUUUUGAGAAGGGGUCCUUCUCCAG [tttttgagapaired]”, the binding signal (log2 fold change) is 0.33.

In the case of “UUUUUUUUUUGAGACGGGGACCGUCUUCUA [tttttgagapaired]”, the binding signal (log2 fold change) was found to be 0.3.

Regarding “GUGUGUUGUGUUGGUGUCUAACACAACGCA [gtspaired]”, the binding signal (log2 fold change) was -0.66.

As to “UUUUUUUUUUGAGACAGGGAUAAUAAAAAA [ttttgagaunpaired]”, the binding signal (log2 fold change) is -0.755.

Turning to “UUCUCUUCUCCUCCAGCGGAGGGGGAGGGA [ctspaired]”, the binding signal (log2 fold change) is -0.299.

Turning to “UUUUUUUUUUGAGAGGGUAACCCUCUCCUA [tttttgagapaired]”, the binding signal (log2 fold change) was -0.00563.

For “UUUUUUUUUUGAGACUGUAUCAGUCUCCAG [tttttgagapaired]”, the binding signal (log2 fold change) came to 0.269.

In the case of “UUUUUUUUUUGAGACUGAUACAGUCUCCUG [tttttgagapaired]”, the binding signal (log2 fold change) worked out at 0.527.

Turning to “UUUUUUUUUUGAGACUGAACCAGUCUCCAG [tttttgagapaired]”, the binding signal (log2 fold change) was 0.294.

On to “UUUUUUUUUUGAGACGGCUUCCGUCUCCUA [tttttgagapaired]”, for which the binding signal (log2 fold change) turned out to be 0.492.

For the sequence “UUUUUUUUUUGAGAUGGAAGCCAUCUCCUG [tttttgagapaired]”, the binding signal (log2 fold change) came to 0.0463.

Turning to “GGUGUGUGUGUUGGAAUCUAACACAUAUAC [gtspaired]”, the binding signal (log2 fold change) is -0.338.

For the sequence “GUGGUGUGUGUUGGAACCUAACACACGCUA [gtspaired]”, the binding signal (log2 fold change) was -0.348.

Turning to “UUUUUUUUUUGAGAAGGUAUCCUUCUCCAG [tttttgagapaired]”, the binding signal (log2 fold change) was -0.211.

Take “UUUUUUUUUUGAGAGGGGGGCCCUCUCCUA [tttttgagapaired]”: the binding signal (log2 fold change) amounted to 0.605.

On to “UUUUUUUUUUGAGAUGGUAACCAUCUUCUG [tttttgagapaired]”, for which the binding signal (log2 fold change) came to 0.291.

Turning to “UUUUUUUUUUGAGACGGGAACCGUCUCCGG [tttttgagapaired]”, the binding signal (log2 fold change) came to 0.447.
